Source: article PMC6919601, “Identification of Plasmodium dipeptidyl aminopeptidase allosteric inhibitors by high throughput screening” (PLoS ONE, 2019)
About 230 (0.21%) of roughly 110,000 compounds showed an effect of 50% or more. The list shows a part of the results.

Target: DPAP1 (Plasmodium falciparum, UniProt Q8IIJ9)
Experiment: primary screen, percent inhibition; read by cleavage of a fluorogenic dipeptide substrate; higher = more effect of the substance
Set-up: species or system P. falciparum D10 trophozoite lysates; single well
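Further: 30 min substrate incubation versus DMSO and 10 µM JCP410 controls.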

Chain of DPAP1 (Q8IIJ9 whole entry, looked up): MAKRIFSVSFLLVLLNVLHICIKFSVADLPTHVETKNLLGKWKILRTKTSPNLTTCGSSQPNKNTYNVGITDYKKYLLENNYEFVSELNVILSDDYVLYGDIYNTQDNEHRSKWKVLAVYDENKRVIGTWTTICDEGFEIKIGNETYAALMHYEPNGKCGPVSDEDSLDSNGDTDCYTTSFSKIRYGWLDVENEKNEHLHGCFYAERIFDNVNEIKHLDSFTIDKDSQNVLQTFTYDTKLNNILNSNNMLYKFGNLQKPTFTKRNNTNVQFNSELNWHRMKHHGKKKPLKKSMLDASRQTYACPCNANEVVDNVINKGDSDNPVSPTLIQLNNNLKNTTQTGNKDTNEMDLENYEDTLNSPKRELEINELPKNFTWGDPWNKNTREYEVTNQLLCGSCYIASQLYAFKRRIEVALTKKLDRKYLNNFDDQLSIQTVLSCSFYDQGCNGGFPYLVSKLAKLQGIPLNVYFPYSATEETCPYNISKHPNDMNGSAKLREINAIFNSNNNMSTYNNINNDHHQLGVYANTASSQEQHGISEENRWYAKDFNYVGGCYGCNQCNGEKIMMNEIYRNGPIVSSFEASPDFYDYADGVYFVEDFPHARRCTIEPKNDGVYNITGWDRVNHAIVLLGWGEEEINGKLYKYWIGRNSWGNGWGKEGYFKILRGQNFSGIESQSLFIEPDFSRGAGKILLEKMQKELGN

Row | Compound | % Inhibition @ 10 uM [%]
1 | O=c1oc2ccc(NS(=O)(=O)c3ccc(Cl)cc3)cc2s1 | -2.86
2 | CCC(C)NC(=O)C1CCCN(S(=O)(=O)N2CCOCC2)C1 (centres unmarked) | -0.517
3 | O=C(Cn1nnc2sc3c(c2c1=O)CCCC3)NCc1ccccc1 | -3.21
4 | O=c1c(Cl)c(NCCc2ccc(Cl)cc2)cnn1C12CC3CC(CC(C3)C1)C2 | -4.66
5 | COc1cc(OC)cc(C(=O)Nc2sc3c(c2C#N)CCCCC3)c1 | -4.41
6 | CC1=Nc2cc([N+](=O)[O-])ccc2NC(=O)C1 | -3.13
7 | CC(=O)c1cccc(NC(=O)CC2S/C(=N\c3ccc(Cl)c(Cl)c3)N(C)C2=O)c1 (centres unmarked) | -5.67
8 | CCCCNC(=O)Cn1ncc2c1-c1ccccc1OC2 | -1.88
9 | Cc1ccc(C(=O)NCc2ccc(Cl)cc2)o1 | 1.88
10 | CCOc1ccc(CNC(=O)CCCN2C(=O)C(c3ccccc3)Oc3cccnc32)cc1 (centres unmarked) | -0.397
11 | CCn1cc(/C=C/C(=O)c2ccc(O)cc2)c(C)n1 | 1.31
12 | Cn1c(N)c(C(c2ccccc2)c2c(N)n(C)c(=O)n(C)c2=O)c(=O)n(C)c1=O | -1.2
13 | c1ccc(Cn2ncc3c(Nc4ccccc4)ncnc32)cc1 | 1.35
14 | CC(C)=CCCC(C)CN(CC(C)O)CC(C)O (centres unmarked) | -0.603
15 | CCC/C(=N\c1ccccc1OC)C1=C(O)CC(c2ccccc2)CC1=O (centres unmarked) | 2.36
16 | CC(=O)NS(=O)(=O)c1ccc(NC(=O)C2c3ccccc3Oc3ccccc32)cc1 | 3.46
17 | CCOC(=O)/C(C#N)=C(\C)c1ccc(Cl)cc1Cl | -0.999
18 | CCCC1CCC(C2=N/C(=C\c3ccccc3OC)C(=O)O2)CC1 (centres unmarked) | 1.97
19 | Cc1ccc(CN2CCC(Cc3ccccc3)CC2)o1 | -5.42
20 | COC(=O)c1ccc(Oc2c(F)c(F)nc(F)c2F)cc1 | -3.41
21 | CN(CC1COc2ccccc2O1)S(=O)(=O)c1ccc(-c2cc(C(F)(F)F)no2)s1 (centres unmarked) | -3.42
22 | CCOc1ccc(-c2csc3nc(-c4ccc(F)cc4)oc(=O)c23)cc1 | -3.28
23 | N#CCc1ccc(NC(=O)c2ccccc2)cc1 | 2.49
24 | CC(C)Oc1ccc(CNCCC(c2ccccc2)c2ccco2)cc1 (centres unmarked) | -3.28
25 | Cc1cc(C)nc(NC(=O)NS(=O)(=O)N(Cc2ccccc2)c2ccccn2)n1 | -6.52
26 | CC1(C)CC(=O)C(/C=N/c2ccc(/N=C/C3=C(O)CC(C)(C)CC3=O)c(O)c2)=C(O)C1 | -1.37

Row | Compound | % Inhibition @ 10 uM [%]
27 | CCCCOc1ccc(N2C(=O)CC(N3CCSCC3)C2=O)cc1 (centres unmarked) | 0.983
28 | CCCNS(=O)(=O)c1c(C(=O)OCC)c(C)n(C)c1C | 1.84
29 | CCN(CC)CCNC(=O)c1cc(O)nc2ccc(Br)cc12 | 1.62
30 | CC(=O)Nc1cc2nc3[nH]c(=O)[nH]c(=O)c3nc2cc1C | 4.26
31 | COc1ccc(N2CCN(C(=O)c3oc4ccc(C)cc4c3C)CC2)cc1 | -5.6
32 | Cc1nc2c(c(C)nn2C(C)(C)C)c(C)c1CCC(=O)NCc1cccnc1 | -6.09
33 | CCOC(=O)N1CCN(C(=S)Nc2ccc3nccnc3c2)CC1 | 1.4
34 | CCc1ccc(C2=CC(c3cccc(OC)c3)n3ncnc3N2)cc1 (centres unmarked) | -5.19
35 | CC(C)(C)OC(=O)N1CCC(c2c(C(=O)NC3CCCC3)cnn2-c2ccccc2Cl)CC1 | -8.37
36 | CCN1CCN(c2oc(COc3ccccc3)nc2C#N)CC1 | -4.62
37 | Cc1nn(C)cc1/C=C1/CC2C3CC=C4CC(O)CCC4(C)C3CCC2(C)C1=O (centres unmarked) | 3.94
38 | CCOc1ccc(NC(=O)c2ccc(C)c(C)c2)cc1 | 2.22
39 | O=C(NCc1ccccn1)NCc1noc2ccccc12 | -1.11
40 | CCc1cc2c(=O)c(-c3nc4ccccc4[nH]3)coc2cc1O | 0.00784
41 | Cc1ccccc1CNC(=O)C(C)n1nc(C)c2sc3ccccc3c2c1=O (centres unmarked) | -2.61
42 | O=C(COc1ccccc1)Nc1cccc(Cl)c1 | -1.97
43 | CCN1CCC(N2CCN(C(C)=O)CC2)CC1 | -0.0908
44 | O=C(Cn1cnc2onc(-c3ccc(F)cc3)c2c1=O)Nc1ccc(Cl)cn1 | 5.52
45 | CN1C(=O)NC(=O)/C(=C\c2cccn2C)C1=O | 5.31
46 | Cc1cccc(OCc2nnc(SCC(=O)Nc3nccs3)o2)c1 | -7.34
47 | O=C(Cn1ncc2ccsc2c1=O)NCCN1CCOCC1 | 3.59
48 | CCOC(=O)C1CCN(Cc2ccc(OC)c(OCC)c2)CC1 | -1.92
49 | Cc1nn(C(C)C(=O)NCCc2c[nH]c3ccccc23)c(=O)c2c1sc1ccccc12 (centres unmarked) | -6.47
50 | CSc1nnc(NC(=O)c2cc(=O)c3cc(C)cc(C)c3o2)s1 | -1.47
51 | O=C(C1CCN(S(=O)(=O)c2cccs2)CC1)N1CCC(Cc2ccccc2)CC1 | -2.65
52 | Cc1nn(C)cc1CNC(=O)c1ccc(Br)o1 | -4.24

Row | Compound | % Inhibition @ 10 uM [%]
53 | COc1ccccc1-c1c(C)nn2c(SCC(=O)N3CCN(C4CCCCC4)CC3)cc(C)nc12 | -5.32
54 | COc1ccc(S(=O)(=O)N(C(=O)c2ccncc2)c2ccc3oc4c(c3c2)CCCC4)cc1 | -0.123
55 | Cc1c2cnn(CC(=O)NCCCc3ccccc3)c(=O)c2c(C)n1Cc1cccc(Cl)c1 | -3.96
56 | Cc1ccnc(NS(=O)(=O)c2ccc(-c3cc(C)no3)cc2)c1 | 0.453
57 | O=C(c1cc(-c2ccc3c(c2)OCO3)nc2ccccc12)N1CCOCC1 | -5.49
58 | COc1ccc(OC)c(C2C3=C(O)CCCC3=NC(C)=C2C(=O)Nc2ccc(Br)cn2)c1 (centres unmarked) | 3.05
59 | CN(C)Cc1ccccc1Sc1ccc(O)cc1 | 1.19
60 | CCOc1ccccc1-c1nc(-c2cc3ccc(C)cc3nc2O)no1 | -3.5
61 | COc1ccccc1NC(=O)C1=C(C)Nc2nc(CCCO)nn2C1c1ccc2c(c1)OCO2 (centres unmarked) | 2.4
62 | CC12CCC(C(=O)N(CN3CCOCC3)C1=O)C2(C)C (centres unmarked) | -0.28
63 | CCOC(=O)C1=C(C)N=c2s/c(=C\c3ccc(C)o3)c(=O)n2C1c1ccc(Cl)cc1 (centres unmarked) | 11.9
64 | COc1cccc(C2C(C(=O)c3ccc4c(c3)CC(C)O4)=C(O)C(=O)N2CCN2CCOCC2)c1 (centres unmarked) | -3.77
65 | O=C(c1cc2c(=O)oc3ccccc3c2s1)N1CCN(c2ncccn2)CC1 | -4.23
66 | CCOc1ccc(C(=O)N2CCC3(CC2)N=C(c2ccc(C)cc2)C(=O)N3)cc1OCC | 3.05
67 | CCOCCCNC(=O)c1c(OC)cccc1OC | -7.37
68 | CC(=O)c1cc2c(cc1NC(=O)c1ccccc1Cl)OCO2 | -7.28
69 | CCC1CCCCN1CCNC(=O)CCCCn1c(=S)[nH]c2c([nH]c3ccc(OC)cc32)c1=O (centres unmarked) | -3.95
70 | CCn1ncc(Cl)c1C(=O)Nc1cccc(OC)c1 | -2.76
71 | CCn1c(C(=O)NCc2ccccc2OC)cc2sc(Cl)cc21 | -4.85
72 | Cc1nc2cc(C(=O)NCCN3CCOCC3)ccc2n1-c1cccc(F)c1 | 1.2
73 | O=C(NCc1ccccn1)c1ccc(Cn2c(SCc3ccc(F)cc3)nc3cccnc32)cc1 | 0.174
74 | Cc1ccccc1C(=O)c1cccn1CC(=O)NCCCSC1CCCCC1 | -4.04
75 | CCOCCCNC(=O)C1CCN(c2nc3ccc(OCC)cc3s2)CC1 | -5.19
76 | COc1ccccc1OCC(=O)Nc1ccc(S(=O)(=O)NC(C)=O)cc1 | 1.28
77 | CC(C)CC(=O)N1CCN(C(=O)c2ccc(F)cc2)CC1 | -3.39
78 | O=C(CC1C(=O)Nc2ccccc2S1=O)Nc1cccc(Cl)c1 (centres unmarked) | 0.161

Row | Compound | % Inhibition @ 10 uM [%]
79 | O=C(NCCCN1CCCC1)C(c1ccccc1)N1Cc2ccccc2C1=O (centres unmarked) | 0.56
80 | CS(=O)(=O)CCC(C(=O)Nc1cccnc1)N1Cc2ccccc2C1=O (centres unmarked) | 5.8
81 | COc1ccc(C2C(C#N)=C(N)Oc3cc(O)ccc32)cc1OC (centres unmarked) | -4.67
82 | N#Cc1cc(Sc2ccc3ccccc3c2)ccc1N | -4.06
83 | COc1cccc2c(O)c(C(=O)O)cnc12 | 0.51
84 | Cc1cc(C)cc(NC(=O)c2ccccc2Br)c1 | 5.56
85 | COc1cccc2c1Oc1nc(-c3cc(Cl)ccc3O)nc(O)c1C2 | 2.32
86 | Cc1ccc(NC(=O)C2=Cc3sc(C)c(C)c3CS2)nc1 | 18.7
87 | COc1ccccc1N1CCN(C(=O)c2ccc(Cl)c(Cl)c2)CC1 | -5.13
88 | N#CCSc1nc2ccc(Nc3nc(N4CCOCC4)nc(N4CCOCC4)n3)cc2s1 | -0.725
89 | CC(Oc1ccc(Cl)cc1Cl)C(=O)N1CCN(c2ccc(Cl)cc2)CC1 (centres unmarked) | 5.31
90 | CCOc1ccc(NC2=NC(=O)CC(C(=O)Nc3ccccc3)N2)cc1 (centres unmarked) | 0.214
91 | CCOc1ccc(NC(=O)COc2ccc(F)cc2)cc1 | -1.28
92 | CCCCn1c(NCc2ccccn2)nc2ccccc21 | -2.65
93 | CCCCN1C(=O)c2[nH]nc(-c3ccccc3O)c2C1c1ccc(OC)cc1 (centres unmarked) | 8.13
94 | Cc1ccccc1S(=O)(=O)Cc1ccc(C(=O)NC2CCCCCC2)o1 | 2.14
95 | CCCC(=O)/N=C(\N)Nc1nc(C)c2cc(C)c(C)cc2n1 | -3.39
96 | Cc1nn(CC(=O)N2CCOCC2)c(=O)c2c1sc1ccccc12 | -2.45
97 | COc1cc(OC)cc(C(=O)NC(C)(C)CO)c1 | -1.02
98 | O=C(N/C(C(=O)N1CCCCC1)=C(\Sc1ncccn1)c1ccccc1)c1ccccc1 | -4.4
99 | CC1CCCCN1C(=O)c1ccccc1N (centres unmarked) | 1.62
100 | CC1=CC(C)C(C2OCC3(CO2)C(C)C=C(C)CC3C)C(C)C1 (centres unmarked) | 9.4
101 | C=CCn1c(SCC(N)=O)nnc1-c1ccc(OC)c(OC)c1 | -1.3
